# According to the supplement of paper PMC8728848:
# The list shows a part of the results.
# B1: LecB PA7 (Pseudomonas aeruginosa) (protein)
# chain: MATQGVFTLPANTRFGVTAFANSSATQTVKVLVNNETAATFTGQSTNNAVIGSQVLNSGGGGKVQIQVSVNGRSSDLVSAQVILANELNVALVGSEDSTDNDYNDAVVVINWPLG
# Legend:
# Test in all cases: glycan array binding signal (z-score within array); higher = stronger binding
# Details in all cases: glycan notation: IUPAC condensed, linker removed
# Neu5Ac(a2-3)GalNAc = biological target: Neu5Ac(a2-3)GalNAc
# Outline: (§1)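 Arrays were curated from the Consortium for Functional Glycomics database, 3228 in total, and kept only where the protein sequence was available. Binding is expressed as a within-array Z-score. This score was averaged across arrays of the same protein sequence at different concentrations or buffers and across linkers, and negative values can be read as non-binding.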
# [1] = biological target: Neu5Ac(a2-3)GalNAc(b1-4)GlcNAc
# Outline: as §1
# [2] = biological target: Neu5Ac(a2-3)[GalNAc(b1-4)]Gal(b1-4)Glc
# Outline: as §1
# [3] = biological target: Neu5Ac(a2-3)[GalNAc(b1-4)]Gal(b1-4)GlcNAc
# Outline: as §1
# [4] = biological target: Neu5Ac(a2-3)[GalNAc(b1-4)]Gal(b1-4)GlcNAc(b1-3)GalNAc
# Outline: as §1
# [5] = biological target: Neu5Ac(a2-3)[Neu5Ac(a2-6)]GalNAc
# Outline: as §1
# Neu5Ac(a2-6)Gal = biological target: Neu5Ac(a2-6)Gal
# Outline: as §1
# [6] = biological target: Neu5Ac(a2-6)Gal(b1-3)GlcNAc(b1-3)[Gal(b1-4)GlcNAc(b1-6)]Gal(b1-4)Glc
# Outline: as §1
# Neu5Ac(a2-6)Gal(b1-4)Glc = biological target: Neu5Ac(a2-6)Gal(b1-4)Glc
# Outline: as §1
# [7] = biological target: Neu5Ac(a2-6)Gal(b1-4)GlcNAc
# Outline: as §1
# [8] = biological target: Neu5Ac(a2-6)Gal(b1-4)GlcNAc(b1-2)Man
# Outline: as §1
# [9] = biological target: Neu5Ac(a2-6)Gal(b1-4)GlcNAc(b1-2)Man(a1-3)Man(b1-4)GlcNAc(b1-4)GlcNAc
# Outline: as §1
# [10] = biological target: Neu5Ac(a2-6)Gal(b1-4)GlcNAc(b1-2)Man(a1-3)[Gal(b1-4)GlcNAc(b1-2)Man(a1-6)]Man(b1-4)GlcNAc(b1-4)GlcNAc
# Outline: as §1
# [11] = biological target: Neu5Ac(a2-6)Gal(b1-4)GlcNAc(b1-2)Man(a1-3)[GlcNAc(b1-4)][Neu5Ac(a2-6)Gal(b1-4)GlcNAc(b1-2)Man(a1-6)]Man(b1-4)GlcNAc(b1-4)GlcNAc
# Outline: as §1
# [12] = biological target: Neu5Ac(a2-6)Gal(b1-4)GlcNAc(b1-2)Man(a1-3)[Man(a1-6)]Man(b1-4)GlcNAc(b1-4)GlcNAc
# Outline: as §1
# [13] = biological target: Neu5Ac(a2-6)Gal(b1-4)GlcNAc(b1-2)Man(a1-3)[Neu5Ac(a2-3)Gal(b1-4)GlcNAc(b1-2)Man(a1-6)]Man(b1-4)GlcNAc(b1-4)GlcNAc
# Outline: as §1
# [14] = biological target: Neu5Ac(a2-6)Gal(b1-4)GlcNAc(b1-2)Man(a1-3)[Neu5Ac(a2-6)Gal(b1-4)GlcNAc(b1-2)Man(a1-6)]Man(b1-4)GlcNAc(b1-4)GlcNAc
# Outline: as §1
# [15] = biological target: Neu5Ac(a2-6)Gal(b1-4)GlcNAc(b1-2)Man(a1-3)[Neu5Ac(a2-6)Gal(b1-4)GlcNAc(b1-2)Man(a1-6)]Man(b1-4)GlcNAc(b1-4)[Fuc(a1-6)]GlcNAc
# Outline: as §1
# [16] = biological target: Neu5Ac(a2-6)Gal(b1-4)GlcNAc(b1-2)Man(a1-6)Man(b1-4)GlcNAc(b1-4)GlcNAc
# Outline: as §1
# [17] = biological target: Neu5Ac(a2-6)Gal(b1-4)GlcNAc(b1-2)Man(a1-6)[Gal(b1-4)GlcNAc(b1-2)Man(a1-3)]Man(b1-4)GlcNAc(b1-4)GlcNAc
# Outline: as §1
# [18] = biological target: Neu5Ac(a2-6)Gal(b1-4)GlcNAc(b1-2)Man(a1-6)[GlcNAc(b1-2)Man(a1-3)]Man(b1-4)GlcNAc(b1-4)GlcNAc
# Outline: as §1
# [19] = biological target: Neu5Ac(a2-6)Gal(b1-4)GlcNAc(b1-2)Man(a1-6)[Man(a1-3)]Man(b1-4)GlcNAc(b1-4)GlcNAc
# Outline: as §1
binder,measurement,setting,value
B1,glycan array binding signal (z-score),Neu5Ac(a2-3)GalNAc,-0.323
same,glycan array binding signal (z-score),[1],-0.506
same,glycan array binding signal (z-score),[2],-0.486
same,glycan array binding signal (z-score),[3],-0.51
same,glycan array binding signal (z-score),[4],-0.497
same,glycan array binding signal (z-score),[5],-0.175
same,glycan array binding signal (z-score),Neu5Ac(a2-6)Gal,-0.497
same,glycan array binding signal (z-score),[6],-0.484
same,glycan array binding signal (z-score),Neu5Ac(a2-6)Gal(b1-4)Glc,-0.498
same,glycan array binding signal (z-score),[7],-0.499
same,glycan array binding signal (z-score),[8],-0.491
same,glycan array binding signal (z-score),[9],-0.495
same,glycan array binding signal (z-score),[10],-0.153
same,glycan array binding signal (z-score),[11],-0.504
same,glycan array binding signal (z-score),[12],0.098
same,glycan array binding signal (z-score),[13],-0.502
same,glycan array binding signal (z-score),[14],-0.47
same,glycan array binding signal (z-score),[15],0.226
same,glycan array binding signal (z-score),[16],-0.497
same,glycan array binding signal (z-score),[17],-0.515
same,glycan array binding signal (z-score),[18],-0.51
same,glycan array binding signal (z-score),[19],1.12
